Results reported in the supplement of paper PMC10126150.
Sequences with one replicate were seen in a single cluster, so their values are uncertain.

System: ATP
Test: switch fluorescence ratio, 500 uM ATP over buffer (Cy3 cluster intensity, sum of 5 cycles each) (fold (ratio)); higher = stronger signal-on switching upon ATP binding; sequences stand for … in TCGTCGGCAGCGTCAGATGTGTATAAGAGACAGTTTTTTTTTTTTTTTTTTTTTTTTT…TC
Conditions: aptamer strand: ATP DNA aptamer (quencher-CACCTGGGGGAGTATTGCGGAGGAAGG + anchor), 100 nM annealed; ATP concentration: 500 uM; one replicate
Procedure, shortened: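 After annealing to 100 nM quencher-labelled ATP aptamer, Cy3-labelled switching-strand clusters on a modified Illumina MiSeq flow-cell were imaged in selection buffer. A second image followed after 15 min with 500 uM ATP at 22 °C, and five such buffer/ATP cycles were done, each separated by NaOH stripping and re-annealing. The fluorescence ratio, averaged per switch-domain sequence, is summed target-cycle over summed buffer-cycle Cy3 intensity per cluster, with clusters outside 100-1000 RFU excluded.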
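Note: ATP exposure 15 min at 22 °C before imaging.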

Sequence | switch fluorescence ratio
TCCAGGACAG | 0.979
TGCCCGAAGA | 1
GCCTGGGAGT | 0.963
ATATGTTCGA | 0.994
GATCTAGCTG | 1.03
CTGGGCGACA | 1.02
GTGACCCAAC | 1.05
ATTCCCATGT | 0.983
ACTGTCTGCG | 0.997
TGTAGGATAT | 1.26
AGTCTGTGGC | 0.924
TGGAGAGTGG | 0.967
TAAGCTTGAG | 1.01
TAGTTGGGTA | 0.937
TAAAGATATT | 0.984
TAGCTGGGCA | 1.02
CACCACAGAA | 1.05
CTCAGCGGCC | 1.72
GTATAGCAAA | 0.991
TCTCCCTTT | 1.02
GGACAACAAT | 0.999
GCAGGGCTT | 0.969
TGGCAGGGGA | 1.02

Sequence | switch fluorescence ratio
ACCTAAATTG | 0.977
GAGATGGAAT | 1
CGTGTGTTTG | 0.974
CCAGACGGGT | 0.987
TGGCGTCGT | 0.958
TGGACTCGCA | 1.15
GCGGTCAACC | 0.989
ATGGTACATG | 0.985
GAAATTGAAT | 1.02
ACTTGTAAGC | 1.01
GTGTACATCG | 1.01
TGGGACTGCA | 1.03
CGATGGGCAC | 1.05
GTTGCTTGGA | 0.965
CCACAAGAGT | 1.2
AGATTTGCCC | 0.944
GAAAGGTTCT | 1
GGGGCTGTCA | 0.954
GAGTTACCGC | 0.97
AGCGGTGCGC | 0.985
ATTCCGTCCA | 1.01
CCAACGTGCA | 1.28
CGACAGCGGG | 0.989

Sequence | switch fluorescence ratio
TCCCTTTGTG | 0.965
TGGACTGGCT | 1.04
CTAGGCCTGA | 0.953
CCCACTTCTC | 1.05
CATTTCCAGA | 1.05
AGGTGGCGA | 1.01
TTGCATACTT | 1.04
TCTCACATCA | 1.08
CTAGCGTATC | 1.03
TATTAAATAG | 0.994
TATTTTCACG | 1.02
TTCAGACACC | 1
GGGATAACGC | 0.988
AGTTGTGGTC | 0.999
CGCGAGTGTC | 1.07
AACAGCAAGA | 1.06
GAGTCCATCC | 1
CTAGGTTAGC | 1.06
ATCAGTGCCA | 1.02
GGCCTAACAG | 0.983
GAGTTATTAG | 0.988
TTGGTATAGA | 0.986
ACCCATTAGC | 1.06

Sequence | switch fluorescence ratio
CAATAAGGGC | 0.957
CAATGTCGT | 0.98
GTGGCTTGAG | 1.01
CGCAGCGTAA | 2.01
GTCCTGCGTT | 1.05
AATTTCGAGA | 0.955
CTAGCGAGCC | 0.985
AAGGTGTTTA | 1.01
TAGGGGAGA | 1.04
AGACCGCCAA | 1.44
GGATCATTAG | 0.986
AATGAGGTAG | 0.93
CCTCTAATTG | 1.33
TTTTCCTGGT | 0.979
GAAATCTTCG | 1.65
TGCGTTAGAG | 0.979
GCAGCGAGGT | 1.13
TGTTATAAGG | 1.01
AACAGTCATA | 1.01
GCTGAATTGC | 0.986
TCGAATGAGC | 0.946
TAATATATGA | 0.955
GAGCGAACTC | 1.18

Sequence | switch fluorescence ratio
TGCTTCATCT | 0.99
CCGACTTCTA | 1.21
GTAAACAGGA | 1.11
ATCAATCATA | 1
TTGGCGCAGA | 1.02
TTCATAAATG | 0.98
GACCTCGAAT | 1.01
GAGATCATT | 0.987
AACTTCGCTG | 1.14
GCATCCTGGG | 0.982
ACTCGAACAC | 1.3
AGCAGAATT | 1.01
AGCAATGTAA | 1.28
CAGCTGCAC | 2.81
AGTTCGGTGA | 1.04
GCAATCATAC | 2.39
TATCAGTTAG | 0.986
GACCTAACGT | 1.31
GATCGGAGAC | 1.04
CGTCCGACCC | 2.21
AGCTTCGGAA | 1.41
ACAGCTTTT | 0.982
CTCATCGCAG | 1.46

Sequence | switch fluorescence ratio
TTAAGAATGA | 0.968
GCTCTGCCT | 1.09
AGTCCATTTC | 0.988
CCGCGGGCCT | 1.16
CAAGGAGGAG | 1
GACTTGGATG | 0.989
CATTTGGGAG | 1.03
ACCGTCACTA | 1.26
AATTAGGTGT | 1.01
ACTTGTCCTT | 1.03
ATTATGCGGA | 0.988
TCATAGTAG | 0.983
GTTTTCACCT | 1.09
AAAAGCATTC | 1.12
GAAGAGCTGG | 0.973
ATGTAGAATT | 1.03
TTACCGAATT | 1.06
TTTTCGCTTG | 1.02
GATTCAAAAG | 1.03
CTGTGTACT | 1.03
CTCGTGCATA | 2.22
TTTATCATGG | 0.98
GGAGATGTAG | 1.01

Sequence | switch fluorescence ratio
ACTGCGTAGT | 1.01
CTATTCCGCT | 1.35
CTTCAAGTTA | 1.05
CAGCACTCAG | 1.05
GTGATCAATT | 0.943
GGGCCTTATA | 0.979
TGGCAAAGAT | 0.984
CTAAGCGATG | 1.01
TGGACATTCG | 0.981
GAACTCATAA | 1.04
TCTTGAAGCC | 1.01
TATGAAGGAT | 1.03
CAAGTGTTA | 0.956
CTAGGTCTGA | 1
CTAAGATTTC | 0.993
GCCGTGGGGG | 0.974
ATTCTGGATA | 1.01
CGGGTGCCAG | 1.19
ACAGCGAATG | 1.03
